{
  "source": "paper PMC12136788",
  "binders": {"B1": {"name": "chr3:58171454:58171555:+|3pUTR|ENSG00000136068|msi1|FALSE|unique (ssRNA)", "RNA": "GGGAGUUCUACAGUCCGACGAUCGGUGAUUAUUUCUUGCAGAAUCACCACACGAGACCAUCCCGGCAGUCAUGGUUUUGCUUUAGUUUUCCAAGUCCGUUUCAGUCCCUUCCUUGGUCUGAAGAAAUUCUGCAGUGGCGAGCACAACAGAGGAUUGAGCAUCA"}, "B2": {"name": "chr1:86742159:86742388:+|CDS|ENSG00000097033|unk|FALSE|bound_elsewhere (ssRNA)", "RNA": "GGGAGUUCUACAGUCCGACGAUCUGUACCAUCAGUUUUACCAAAUGCGAUUGGUUCUUCUGCCAUGGCUUCAACAAGUGGCCUAGUAAUCACCUCUCCUUCCAACCUCAGUGACCUUAAGGAGUGUAGUGGCAGCAGAAAGGCCAACAGAGGAUUGAGCAUCA"}, "B3": {"name": "chr9:133763799:133763900:-|3pUTR|ENSG00000160293|msi1|FALSE|unique (ssRNA)", "RNA": "GGGAGUUCUACAGUCCGACGAUCCGAACCGUUUCACUGUCAGCCUGCCCUCGGCGACCCAUCACUGGGUAUGCUAUUGUACAUAGAGGAAACCUGGGCUAGCCCCACCCAGAGCGCAGAGGAGGGGGCACCGACAGCGCUGCGCAACAGAGGAUUGAGCAUCA"}, "B4": {"name": "ENSG00000070961:be:win_4501|3pUTR|ENSG00000070961|bound_else_gene|NA|bound_elsewhere_windowed (ssRNA)", "RNA": "GGGAGUUCUACAGUCCGACGAUCCCUUUUGUUCAGAAUUUAGUAGAUUGUUUAAUGCAGGACAUCAACUACAUAAUGAAAGAUGCUUGAAAUGCUUUUGUUAUUUCAGGCAAAUCAAAUUAAAUCAGACUAUCAAACUACAAGCAACAGAGGAUUGAGCAUCA"}, "B5": {"name": "ENSG00000169710:stop:overlap|stop_codon|ENSG00000169710|stop_codon|NA|stop_codon (ssRNA)", "RNA": "GGGAGUUCUACAGUCCGACGAUCCCAUCAUCAGCAUCAUCCACAGCUCCCUGGCUGAGCCACGCGUGAGCGUGCGGGAGGGCUAGGCCCGUGCCCCCGCCUGCCACCGGAGGUCACUCCACCAUCCCCACCCCACCCCACCCCCAACAGAGGAUUGAGCAUCA"}, "B6": {"name": "chr7:32869766:32869881:-|CDS|ENSG00000170852|unk|total|mutant (ssRNA)", "RNA": "GGGAGUUCUACAGUCCGACGAUCAUGUACUGUUAUUUUCCAAGGUCUGACUCAUGGGCCGAAAUGGCCAUGAGACAGACCCGCCGGUCCUUUGCUUCAGCUGCAGCUUUUGGUGAUAAAAUUUUCUAUAUUGGAGGGUUGCAUCAACAGAGGAUUGAGCAUCA"}, "B7": {"name": "chr6:55753652:55755532:-|three_prime_utr|ENSG00000112175|control|control|control (ssRNA)", "RNA": "GGGAGUUCUACAGUCCGACGAUCUAAGGUUUAUGGCUGCAAUAAAAAGCAUACUUUCAGACAAACGGGGAAUUUCCUAAAAUUAGUCUGGCUCAUUUUGACUCUUUUCCUAUGUACAAUAUCAUGUAUAUAGUCAUUUUUAUUCAACAGAGGAUUGAGCAUCA"}, "B8": {"name": "chr3:11557766:11557867:-|3pUTR|ENSG00000144560|msi1|FALSE|unique (ssRNA)", "RNA": "GGGAGUUCUACAGUCCGACGAUCCUGGACUGCAGACUCUACCAAUCACGGGCAUUUUAUCUUCUCUGAACACUGCAGUUUGUUAGACUAGAGCUGAGGUUGGAGGAUUCCAUAGUGCUUUAAACGUGAUGCAUGUUUUAAUGGCAACAGAGGAUUGAGCAUCA"}, "B9": {"name": "chr3:185917260:185917361:-|3pUTR|ENSG00000136527|msi1|total|mutant (ssRNA)", "RNA": "GGGAGUUCUACAGUCCGACGAUCUGGCAAAAAGCAACAAUAAACAGUUUGAUUUUUACUUUUCUUUCUAACAUAUCAAUGCUCCGCAGAACUAUUCAGAUUGUCAGCCGUAAAUUUAAAGACAAAUGCCCGUUUUCCUCCAGUCAACAGAGGAUUGAGCAUCA"}, "B10": {"name": "chr2:42682433:42682535:+|CDS|ENSG00000057935|unk|total|mutant (ssRNA)", "RNA": "GGGAGUUCUACAGUCCGACGAUCUCACGCUAUGGAUACAUUGUACCGACACAGCUAUGAUUUGAGCAGUGCCAUCCGUGUCUCCGUACCACUCGGAGGACCUGUUUUAUGCAGAGAUGAAAUGGAGGAAUGGUCAGCCUCUGACAACAGAGGAUUGAGCAUCA"}, "B11": {"name": "ENSG00000126524:stop:overlap|stop_codon|ENSG00000126524|stop_codon|NA|stop_codon (ssRNA)", "RNA": "GGGAGUUCUACAGUCCGACGAUCAGCUCAAGCCACUGAUCAAGGUCAUAGAAAGUGAAGAUUAUGGCCAACAGUUAGAAAUCUAGAGACGGAGUUUCACCGUGUUAGCCAGGACGGUCUUGAUCUCCUGACCUCAUGAUCCACCAACAGAGGAUUGAGCAUCA"}, "B12": {"name": "ENSG00000170113:stop:overlap|stop_codon|ENSG00000170113|stop_codon|NA|stop_codon (ssRNA)", "RNA": "GGGAGUUCUACAGUCCGACGAUCUGUUCAAAGAGUUCAAUUUCAACCUUGGGGAGAUGAACAAAUCUAAUAUGAAAACAGACUAGAUUGCAAUAGGAGCUUGGAUGGUUCGAGGAAUAGGCAUUGGAGGUGGUUUCUGGCCGUCAACAGAGGAUUGAGCAUCA"}, "B13": {"name": "chr12:7652437:7652835:-|CDS|ENSG00000111701|control|control|control (ssRNA)", "RNA": "GGGAGUUCUACAGUCCGACGAUCCUCCCAGGCUAUUAGAGAGUUUCUGAGUCGGCACCCUGGUGUGACUCUAGUGAUCUACGUAGCUCGGCUUUUUUGGCACAUGGAUCAACAAAAUCGGCAAGGUCUCAGGGACCUUGUUAACAACAGAGGAUUGAGCAUCA"}, "B14": {"name": "chr11:61403655:61403707:-|3pUTR|ENSG00000149532|msi1_unk|FALSE|overlapping (ssRNA)", "RNA": "GGGAGUUCUACAGUCCGACGAUCUGAAGUAACCAGGAGGAAUGGGGAAAGAAGCAAGUUGGGCAGGAUAUGGCCUACUUCCAUAGGCUUUUCUUUUUUCAGGUUUGAUGUAAGCAUGGGCUUACAUCCCCCAGGUACAUACUUCAACAGAGGAUUGAGCAUCA"}, "B15": {"name": "chr17:4948375:4948459:-|5pUTR_CDS|ENSG00000108518|msi1_unk|total|mutant (ssRNA)", "RNA": "GGGAGUUCUACAGUCCGACGAUCAGCCGAGGCAGCUCGAGCCCAGUCCGCGGCCCCAGCAGCAGCGCCGAGAGCAGCCCCAGCCGCAGCGCCAUGGCCGGGUGGAACGCCUACAUCGACAACCUCAUGGCGGACGGGACCUGUCAACAGAGGAUUGAGCAUCA"}, "B16": {"name": "chr17:1004907:1005008:-|3pUTR|ENSG00000159842|msi1|FALSE|unique (ssRNA)", "RNA": "GGGAGUUCUACAGUCCGACGAUCAAGAGGGGCCAGGCUUCCUGGAGGGUGACUGAUGUGGCCGAAGCAGGUGUCCAGGCAGGUAGGCUGCAGCCAGGAGCUCCCUGGCACCGCAGGACCUCGUGGUACUCUUGCCUUAGAUUUCAACAGAGGAUUGAGCAUCA"}, "B17": {"name": "chr12:53253816:53253925:+|CDS|ENSG00000182544|unk|FALSE|unique (ssRNA)", "RNA": "GGGAGUUCUACAGUCCGACGAUCUCUCUUCAUGUUGACUUUCUCUACCAGCCCAGGCCAGGAGAGUCCGGUGGAGUCCUUCAUAGCCUUUCUACUUAUUGAGUUGGCUUGUGGAUUAUACUUUCCCAGCAUGAGCUUCCUACGCAACAGAGGAUUGAGCAUCA"}, "B18": {"name": "ENSG00000136451:be:win_1851|3pUTR|ENSG00000136451|bound_else_gene|NA|bound_elsewhere_windowed (ssRNA)", "RNA": "GGGAGUUCUACAGUCCGACGAUCUCAUAAGUAGAACCCACUUCAAAAUAAAAAAACAGCAUUACUAUUUCUAAUCCCAAGGAAUCACUUUAUUGUAAACACUAGCAGAACUCUUCUCCCUAUACAAGGUGGAUGGCUGAUUUUCAACAGAGGAUUGAGCAUCA"}, "B19": {"name": "chr6:158982484:158982688:-|CDS|ENSG00000130363|control|control|control (ssRNA)", "RNA": "GGGAGUUCUACAGUCCGACGAUCGAAGAAGAAGAGCUGGCUAACCUGCGGGCCAGUCAGCGUGAGUAUGAAGAACUACGGAAUAGUGAACGUGCUGAAGUUCAACGACUUGAAGAGCAAGAGAGGCGACACCGAGAAGAAAAACAACAGAGGAUUGAGCAUCA"}, "B20": {"name": "chr16:70157515:70157662:+|3pUTR|ENSG00000090857|msi1|FALSE|unique (ssRNA)", "RNA": "GGGAGUUCUACAGUCCGACGAUCCUCCCUAUAAUUUUCUUCAUCUCUUGCUAAUCUCUAUAAUAAGGUUGCUUUUUCUUUCUUAGUUGAGUAAACAAGUAAGCCACAGUGUUUGAAAGGGAAAAACCAUAUUGCCUUGUGUGUCAACAGAGGAUUGAGCAUCA"}, "B21": {"name": "chr11:47420279:47420382:-|CDS|ENSG00000165916|unk|FALSE|unique (ssRNA)", "RNA": "GGGAGUUCUACAGUCCGACGAUCAAACAGGGUGGACAUCCUGGACCCCGCCCUCCUCCGCUCGGGCCGCCUUGACCGCAAGAUAGAGUUCCCGAUGCCCAAUGAGGAGGCCCGGGCCAGAAUCAUGCAGAUCCACUCCCGAAACAACAGAGGAUUGAGCAUCA"}, "B22": {"name": "chr15:48342169:48342270:+|3pUTR|ENSG00000128951|msi1_unk|total|mutant (ssRNA)", "RNA": "GGGAGUUCUACAGUCCGACGAUCAAAAAAAAAAAAAGUUUUUGCUUCAAGUGUUUUGGUGUUUUGCACUUCUGUAAACUUACCCGCUUUACCUUCUAAAAGUACUGCAUUUUUUACUUUUUUUUAUGAUCAAGGAAAAGAUCACAACAGAGGAUUGAGCAUCA"}},
  "note": "The other results are listed elsewhere or left out.",
  "data": [
    {"biological_target": "T1, UNK ZnF1-6 (called full-length) (human, UniProt Q9C0B0 30-357)", "T1 sequence": "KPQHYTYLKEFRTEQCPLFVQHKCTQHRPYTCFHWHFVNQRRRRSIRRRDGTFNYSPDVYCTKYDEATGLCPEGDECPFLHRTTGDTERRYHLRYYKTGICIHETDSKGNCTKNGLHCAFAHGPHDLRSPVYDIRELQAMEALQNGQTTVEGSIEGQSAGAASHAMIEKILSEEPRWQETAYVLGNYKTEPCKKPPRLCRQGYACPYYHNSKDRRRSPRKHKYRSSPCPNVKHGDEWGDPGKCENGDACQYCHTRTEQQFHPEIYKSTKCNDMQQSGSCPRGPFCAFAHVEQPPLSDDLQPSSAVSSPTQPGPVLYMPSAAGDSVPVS", "assay": "nsRBNS (natural sequence RNA bind-n-seq); RBNS binding buffer (assumed for nsRBNS): 25 mM Tris pH 7.5, 150 mM KCl, 3 mM MgCl2, 0.01% Triton X-100, 500 ug/ml BSA, 20 U/ml SUPERase-In, 4 C; UNK is unkempt and MSI1 is Musashi-1; names of the RNAs are library labels; protein concentration not given here; high values mean tight binding", "units": {"binding signal": "enrichment R"}, "values": [
      {"binder": "B1", "binding signal": 0.682},
      {"binder": "B2", "binding signal": 0.516},
      {"binder": "B3", "binding signal": 0.73},
      {"binder": "B4", "binding signal": 0.383},
      {"binder": "B5", "binding signal": 0.273},
      {"binder": "B6", "binding signal": 0.377},
      {"binder": "B7", "binding signal": 0.886},
      {"binder": "B8", "binding signal": 0.912},
      {"binder": "B9", "binding signal": 0.344},
      {"binder": "B10", "binding signal": 0.568},
      {"binder": "B11", "binding signal": 0.747},
      {"binder": "B12", "binding signal": 1.22},
      {"binder": "B13", "binding signal": 0.351},
      {"binder": "B14", "binding signal": 0.865},
      {"binder": "B15", "binding signal": 0.992},
      {"binder": "B16", "binding signal": 1.75},
      {"binder": "B17", "binding signal": 0.799},
      {"binder": "B18", "binding signal": 1.38},
      {"binder": "B19", "binding signal": 0.602},
      {"binder": "B20", "binding signal": 0.624},
      {"binder": "B21", "binding signal": 0.752},
      {"binder": "B22", "binding signal": 0.471}
    ]}
  ]
}
